Source: the supplement of paper PMC12217912
Some of the results follow. The full chains were built here from the parent and the listed change. Inactive controls read about 0.05.

B1: TEV protease; numbered along this chain (parent)
chain: MGESLFKGPRDYNPISSSICHLTNESDGHTTSLYGIGFGPFIITNKHLFRRNNGTLVVQSLHGVFKVKDTTTLQQHLVDGRDMIIIRMPKDFPPFPQKLKFREPQREERICLVTTNFQTKSMSSMVSDTSCTFPSGDGIFWKHWIQTKDGQCGSPLVSTRDGFIVGIHSASNFTNTNNYFTSVPKNFMELLTNQEAQQWVSGWRLNADSVLWGGHKVFMVKPEEPFQPVKEATQL

Variants of: B1
Assay: raw area under fraction-flipped curve 0-4 h after induction (AUC4h, not background-subtracted), DNA-recorder readout of cleavage of the substrate (dimensionless); higher = more cleavage of the substrate by the protease variant
Details: temperature: 34 °C; time window: 0-4 h after rhamnose induction
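Further: Bxb1 expression induced with 0.2% (w/v) L-rhamnose at OD600 near 0.5, cultures sampled hourly, flipped fraction per protease–substrate barcode pair counted by paired-end Illumina sequencing.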

| Variant | area with substrate ENAYFQS | area with substrate ENCYFQS | area with substrate ENDYFQS | area with substrate ENEYFQS | area with substrate ENFYFQS | area with substrate ENGYFQS | area with substrate ENHYFQS | area with substrate ENIYFQS | area with substrate ENKYFQS | area with substrate ENMYFQS | area with substrate ENNYFQS | area with substrate ENPYFQS | area with substrate ENQYFQS | area with substrate ENRYFQS | area with substrate ENSYFQS | area with substrate ENTYFQS | area with substrate ENVYFQS | area with substrate ENWYFQS | area with substrate ENYYFQS |
| --- | --- | --- | --- | --- | --- | --- | --- | --- | --- | --- | --- | --- | --- | --- | --- | --- | --- | --- | --- |
| T192I | 0.0731 | 0.0632 | 0.0633 | 0.0637 | 0.0597 | 0.0654 | 0.0609 | 0.0907 | 0.067 | 0.0836 | 0.0597 | 0.0469 | 0.0608 | 0.0603 | 0.0556 | 0.0646 | 0.0905 | 0.0678 | 0.066 |
| T192Q | 0.0914 | 0.0672 | 0.0611 | 0.0695 | 0.064 | 0.0552 |  | 0.0308 | 0.0812 |  | 0.0816 | 0.0744 | 0.0575 | 0.0556 |  | 0.0632 | 0.0748 |  | 0.0525 |
| T192V | 0.0769 | 0.0751 |  | 0.0685 |  | 0.072 |  |  |  |  | 0.0503 | 0.0536 | 0.0638 |  |  | 0.0682 |  | 0.0708 | 0.0638 |
| Q197W | 0.0455 | 0.0679 | 0.0647 | 0.0509 | 0.0617 |  |  | 0.08 | 0.0589 | 0.0695 | 0.0574 | 0.0754 | 0.0676 | 0.0585 | 0.0708 | 0.0403 | 0.0846 | 0.0583 | 0.0693 |
| Q198K | 0.0628 | 0.064 | 0.0556 | 0.0669 |  | 0.0779 | 0.0726 | 0.0999 | 0.0633 |  | 0.0501 |  | 0.059 | 0.0573 | 0.0686 |  | 0.0829 |  |  |
| V200H | 0.0658 | 0.0557 | 0.0641 | 0.0629 | 0.0503 | 0.0553 | 0.0588 | 0.0759 | 0.0553 | 0.0647 |  |  | 0.0377 |  | 0.055 | 0.123 | 0.0647 | 0.0597 | 0.0682 |
| V200L | 0.0434 |  | 0.0514 | 0.0471 | 0.0961 | 0.0705 |  | 0.101 |  | 0.0701 |  |  | 0.0811 | 0.0584 | 0.0483 |  |  |  |  |
| V200P | 0.0481 | 0.0347 |  | 0.048 |  | 0.0473 |  | 0.0442 |  |  | 0.0593 |  |  | 0.0929 | 0.069 | 0.0585 |  |  | 0.0708 |
| V200W | 0.062 |  |  |  |  |  |  |  |  | 0.0614 | 0.0635 |  |  | 0.0505 | 0.0725 |  | 0.0552 |  |  |
| R204H | 0.0547 | 0.0664 | 0.0037 | 0.0676 | 0.0689 | 0.054 | 0.0575 | 0.118 | 0.0644 | 0.0647 | 0.0653 | 0.0571 | 0.0596 | 0.0458 | 0.0958 | 0.0638 | 0.0604 |  |  |
| D208E | 0.076 |  | 0.0585 |  | 0.0616 |  | 0.051 | 0.0913 |  | 0.043 |  | 0.0579 | 0.0638 | 0.0733 | 0.0715 |  | 0.0604 |  | 0.0465 |
| D208K | 0.0554 | 0.0592 |  |  | 0.0495 |  |  |  | 0.0771 |  |  |  |  |  | 0.0694 |  |  |  |  |
| D208Q | 0.0757 | 0.064 | 0.0551 | 0.0491 | 0.0488 | 0.0605 |  | 0.0704 |  | 0.0538 | 0.0596 | 0.0615 | 0.0565 | 0.0517 | 0.0571 | 0.059 | 0.0637 | 0.0072 |  |
| D208S | 0.0373 | 0.0646 |  |  | 0.0503 | 0.0469 |  | 0.106 | 0.056 |  | 0.0571 |  | 0.0583 | 0.0476 | 0.0729 |  |  |  |  |
| K216F | 0.0463 | 0.0778 | 0.0581 | 0.0339 |  | 0.0612 |  |  |  | 0.057 | 0.0585 |  | 0.0556 | 0.0614 | 0.0707 |  |  |  |  |
| K216G | 0.0413 | 0.0376 |  | 0.0496 | 0.0461 |  | 0.0465 | 0.0607 |  | 0.0583 | 0.0327 | 0.0368 | 0.0365 | 0.0464 | 0.0506 |  | 0.0469 | 0.0576 | 0.0548 |
| K216Q | 0.0754 |  | 0.0481 | 0.0618 |  |  |  | 0.155 |  |  |  |  | 0.0479 | 0.0506 | 0.0563 |  | 0.0527 |  |  |
| V220R | 0.07 | 0.0782 | 0.0626 | 0.0593 | 0.0632 | 0.0678 | 0.0553 |  |  |  | 0.0675 | 0.0463 | 0.0602 | 0.056 | 0.0609 |  | 0.0654 | 0.0658 | 0.0574 |
| K221R | 0.0689 |  | 0.0576 | 0.069 | 0.0467 | 0.0554 |  |  | 0.0592 | 0.0753 | 0.0591 | 0.0709 | 0.0619 | 0.0579 | 0.0756 | 0.0663 | 0.0806 | 0.0502 | 0.0538 |
| P222H | 0.0442 | 0.0588 | 0.0689 | 0.0549 |  |  | 0.103 |  |  |  | 0.054 | 0.0893 |  | 0.0485 | 0.0525 | 0.0409 | 0.062 | 0.0466 |  |
| E224A | 0.0622 | 0.0653 | 0.0526 | 0.0641 | 0.0657 | 0.0766 | 0.0689 | 0.1 |  |  | 0.0637 | 0.0487 | 0.0602 |  | 0.0644 |  | 0.069 |  | 0.0643 |
| E224C | 0.0652 | 0.0651 | 0.0738 | 0.0658 | 0.0634 | 0.0476 |  | 0.0997 | 0.0647 | 0.0845 | 0.0455 | 0.0506 | 0.0624 | 0.0573 | 0.0559 | 0.0576 |  | 0.0405 | 0.0124 |
| E224H | 0.0577 | 0.068 |  | 0.0656 | 0.0515 |  |  | 0.0916 |  |  |  |  | 0.0559 | 0.0371 | 0.0579 | 0.0607 | 0.0745 | 0.057 |  |
| E224N | 0.0644 |  | 0.0418 | 0.0536 |  | 0.0617 | 0.0454 |  |  | 0.0718 | 0.0579 | 0.0632 | 0.0599 |  | 0.0573 | 0.0688 |  | 0.0703 |  |
| E224R | 0.0531 |  | 0.0385 | 0.07 |  |  | 0.0574 |  | 0.0756 | 0.0569 | 0.0629 |  | 0.0393 | 0.0653 | 0.0529 | 0.0719 | 0.0388 |  |  |
| E224S | 0.0613 | 0.0674 | 0.0475 | 0.0658 |  | 0.0494 | 0.0583 | 0.103 |  | 0.0761 | 0.0559 | 0.0672 | 0.0629 | 0.0605 | 0.0661 |  |  | 0.0449 |  |
| E224V | 0.0665 | 0.0639 | 0.0678 | 0.0605 | 0.0711 | 0.076 |  | 0.103 | 0.0741 |  | 0.0512 |  | 0.0205 | 0.0477 | 0.0637 | 0.0561 | 0.0798 |  |  |
